# Assay results as given in PubChem BioAssay (Tox21).
# Several values for one entry are separate records, joined by “and”; a condition that tells them apart may be missing. Equal values may be shown once. Inconclusive results, whose numbers are uncertain, are shown with a selection of clear calls. For some of these results: Where the call is inconclusive, the potency comes from a doubtful curve fit. Activity calls are given as the source filed them. Unless noted, calls follow the shape of the full dose curve.
# Legend:
# [1] = qHTS assay to identify small molecule antagonists of the peroxisome proliferator-activated receptor gamma (PPARg) signaling pathway - cell viability counter screen (AID 743194; active = well fitted curve in the direction sought with a large enough effect in the repeat runs; inconclusive = weak or mixed curves; inactive = no such curve, though single readings can be large; an effect the other way counts as inactive or inconclusive; also: nearly all actives have a fitted effect of over 55% in size; also: potency is read from the fitted curve at half-maximal effect); details: PPARg-bla HEK293H viability, CellTiter-Glo luminescence, 17 h, co-treated with 50 nM rosiglitazone; activity change, negative = cytotoxicity: at 62.6 µM (top of the series)
# In short: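 Viability was measured as CellTiter-Glo luminescence in GeneBLAzer PPARg UAS-bla HEK293H cells. These cells had been exposed 17 h at 37 C to compounds together with rosiglitazone at 50 nM final, with the beta-lactamase readout taken in the same wells.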
# [2] = qHTS assay for small molecule agonists of the antioxidant response element (ARE) signaling pathway (AID 743202; active = well fitted activation curve with a large enough effect in the signal ratio in the repeat runs, not every such curve was filed as active; inconclusive = weak or mixed curves, or effect the other way; inactive = no such curve, though single readings can be large or run the other way; the % refers to the signal ratio; also: potency is read from the fitted curve at half-maximal effect; as to activation: % is scaled to controls: 0 for no effect and ±100 for the full control effect); details: HepG2 ARE-bla reporter, beta-lactamase FRET, 16 h; activation: at 73.3 µM (top of the series) unless noted
# In short: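 Beta-lactamase reporter activity, read as fluorescence intensity, reflects ARE/Nrf2 pathway induction in HepG2 cells after 16 h compound exposure at 37 C; substrate loading was 2 h at room temperature.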
# [3] = qHTS assay for small molecule agonists of the antioxidant response element (ARE) signaling pathway - cell viability counter screen (AID 743203); details: ARE-bla HepG2 viability, CellTiter-Glo luminescence, 16 h; viability change, negative = cytotoxic: at 73.3 µM (top of the series); also: % is scaled to controls: 0 for no effect and ±100 for the full control effect; nearly all actives have a fitted effect of over 55% in size
# In short: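 Cytotoxicity was tested in parallel with the ARE reporter screen. ARE-bla HepG2 cells were exposed to compounds for 16 hrs, and viability was taken from CellTiter-Glo luminescence.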
# [4] = qHTS assay for small molecule activators of the heat shock response signaling pathway (AID 743210; active = well fitted activation curve with a large enough effect in the signal ratio in the repeat runs, with a control signal flat, not every such curve was filed as active; inconclusive = weak or mixed curves; the % refers to the signal ratio; also: potency is read from the fitted curve at half-maximal effect); details: HeLa HSE-bla reporter, beta-lactamase ratio, 5 h; activation: at 62.6 µM (top of the series)
# In short: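 Fluorescence from a cleaved B/G FRET substrate (2.5 h, room temp) reports HSE-driven beta-lactamase in HeLa cells treated 5 h at 37 C with DMSO-dissolved compounds.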
# [5] = biological target: Bile acid receptor (Homo sapiens) (UniProt Q96RI1); assay: qHTS assay to identify small molecule antagonists of the farnesoid-X-receptor (FXR) signaling pathway (AID 743217; active = well fitted inhibition curve with a large enough effect in the signal ratio in the repeat runs, not every such curve was filed as active; inconclusive = weak or mixed curves, or effect the other way; inactive = no such curve, though single readings can be large or run the other way; the % refers to the signal ratio; also: potency is read from the fitted curve at half-maximal effect; as to activity change, negative = inhibition: % is scaled to controls: 0 for no effect and ±100 for the full control effect); details: HEK293T FXR-UAS-bla, beta-lactamase ratio, CDCA-stimulated, 16 h; activity change, negative = inhibition: at 62.6 µM (top of the series) unless noted
# UniProt Q96RI1, sequence (Q96RI1 whole entry, looked up): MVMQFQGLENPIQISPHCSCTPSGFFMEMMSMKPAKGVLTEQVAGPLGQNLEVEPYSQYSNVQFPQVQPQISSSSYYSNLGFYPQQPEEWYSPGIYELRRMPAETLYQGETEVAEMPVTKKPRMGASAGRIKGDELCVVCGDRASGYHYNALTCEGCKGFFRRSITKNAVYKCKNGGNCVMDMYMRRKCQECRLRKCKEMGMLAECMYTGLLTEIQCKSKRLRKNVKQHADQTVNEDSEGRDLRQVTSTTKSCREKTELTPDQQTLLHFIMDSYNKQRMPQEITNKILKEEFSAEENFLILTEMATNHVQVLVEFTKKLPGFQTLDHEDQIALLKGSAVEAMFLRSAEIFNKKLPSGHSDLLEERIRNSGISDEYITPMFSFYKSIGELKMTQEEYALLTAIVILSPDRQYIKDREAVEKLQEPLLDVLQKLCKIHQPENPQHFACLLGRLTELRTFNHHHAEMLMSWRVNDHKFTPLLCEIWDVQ
# In short: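 Cells carrying a UAS-driven beta-lactamase reporter (GeneBLAzer FXR-UAS-bla HEK 293T) were plated and rested 5 h at 37 °C. Compounds in DMSO were added alongside chenodeoxycholic acid agonist at 50 uM final and left 16 h at 37 °C before FRET substrate readout.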
# [6] = qHTS assay to identify small molecule agonists of the farnesoid-X-receptor (FXR) signaling pathway - cell viability counter screen (AID 743218; active = well fitted curve in the direction sought with a large enough effect in the repeat runs; inconclusive = weak or mixed curves; inactive = no such curve, though single readings can be large; an effect the other way counts as inactive or inconclusive; also: potency is read from the fitted curve at half-maximal effect; nearly all actives have a fitted effect of over 45% in size); details: FXR-bla HEK293T viability, CellTiter-Glo luminescence, 16 h; viability change, negative = cytotoxic: at 62.6 µM (top of the series) unless noted
# In short: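 Cells were seeded, left 5 h at 37 C and 5% CO2, then dosed with compound in DMSO for 16 h. After the beta-lactamase FRET read, CellTiter-Glo was added and luminescence measured 30 min later.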
# [7] = biological target: Bile acid receptor (Homo sapiens) (UniProt Q96RI1); assay: qHTS assay to identify small molecule agonists of the farnesoid-X-receptor (FXR) signaling pathway (AID 743220; active = well fitted activation curve with a large enough effect in the signal ratio in the repeat runs, not every such curve was filed as active; inconclusive = weak or mixed curves, or effect the other way; the % refers to the signal ratio; also: potency is read from the fitted curve at half-maximal effect); details: HEK293T FXR-UAS-bla, beta-lactamase FRET ratio, 16 h; activation: at 62.6 µM (top of the series) unless noted
# In short: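 FXR-UAS-bla HEK 293T cells carrying a UAS-driven beta-lactamase reporter were plated for 5 h at 37C/5% CO2, then exposed to DMSO-dissolved Tox21 10K compounds for 16 h at 37C. A LiveBLAzer B/G FRET substrate was loaded for 2 h at room temperature before fluorescence reading.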
# [8] = qHTS assay to identify small molecule antagonists of the farnesoid-X-receptor (FXR) signaling pathway - cell viability counter screen (AID 743221; active = well fitted cell-killing curve with a large enough effect in the repeat runs, not every such curve was filed as active; inconclusive = weak or mixed curves, or effect the other way; inactive = no such curve, though single readings can be large or run the other way; also: potency is read from the fitted curve at half-maximal effect; nearly all actives have a fitted effect of over 50% in size); details: FXR-bla HEK293T viability, CellTiter-Glo luminescence, 16 h; activity change, negative = cytotoxicity: at 62.6 µM (top of the series)
# In short: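 HEK 293T FXR-bla cells, 5 h pre-incubation; compound + CDCA 50 uM final, 16 h, 37 C; beta-lactamase FRET read first, then CellTiter-Glo luminescence, 30 min RT.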
# [9] = biological target: Vitamin D3 receptor (Homo sapiens) (UniProt P11473); assay: qHTS assay to identify small molecule agonists of the vitamin D receptor (VDR) signaling pathway (AID 743222); details: HEK293T VDR-UAS-bla, beta-lactamase FRET ratio, 16 h; activation: at 63.5 µM (top of the series) unless noted; also: potency is read from the fitted curve at half-maximal effect
# UniProt P11473, sequence (P11473 whole entry, looked up): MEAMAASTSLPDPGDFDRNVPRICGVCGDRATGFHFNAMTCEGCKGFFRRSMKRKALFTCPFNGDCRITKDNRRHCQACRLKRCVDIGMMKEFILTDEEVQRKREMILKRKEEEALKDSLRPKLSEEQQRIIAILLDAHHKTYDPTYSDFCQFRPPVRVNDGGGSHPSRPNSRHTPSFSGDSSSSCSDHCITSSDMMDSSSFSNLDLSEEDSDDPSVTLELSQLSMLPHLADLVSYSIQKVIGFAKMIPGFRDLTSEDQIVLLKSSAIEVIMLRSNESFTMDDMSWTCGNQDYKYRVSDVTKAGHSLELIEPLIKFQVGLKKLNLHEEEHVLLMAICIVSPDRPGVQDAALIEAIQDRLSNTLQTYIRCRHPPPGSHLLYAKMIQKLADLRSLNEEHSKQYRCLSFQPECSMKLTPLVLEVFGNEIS
# In short: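 Cells carrying a VDR-driven beta-lactamase reporter are seeded at 2,000 per well and rested 4 h. Compounds in DMSO are added for 16 h at 37C, and FRET substrate fluorescence is measured after 2 h at room temperature.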
# [10] = biological target: Vitamin D3 receptor (Homo sapiens) (UniProt P11473); assay: qHTS assay to identify small molecule antagonists of the vitamin D receptor (VDR) signaling pathway (AID 743223; active = well fitted inhibition curve with a large enough effect in the signal ratio in the repeat runs, not every such curve was filed as active; inconclusive = weak or mixed curves, or effect the other way; inactive = no such curve, though single readings can be large or run the other way; the % refers to the signal ratio; also: potency is read from the fitted curve at half-maximal effect); details: VDR-UAS-bla HEK293T, beta-lactamase FRET ratio, 16 h; activity change, negative = inhibition: at 61 µM (top of the series) unless noted
# In short: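 Beta-lactamase reporter read-out: FRET substrate fluorescence after 2 h at room temperature, following 16 h exposure of VDR-bla cells to test compound plus 3 nM (final) 1alpha,25-dihydroxyvitamin D3 agonist at 37C.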
# [11] = biological target: Peroxisome proliferator-activated receptor gamma (Homo sapiens) (UniProt P37231); assay: qHTS assay to identify small molecule antagonists of the peroxisome proliferator-activated receptor gamma (PPARg) signaling pathway (AID 743191); details: HEK293H PPARg-UAS-bla, beta-lactamase ratio, antagonist, 17 h; ratio activity, negative = inhibition: at 62.6 µM (top of the series) unless noted; also: nearly all actives have a fitted effect of over 30% in size; also: potency is read from the fitted curve at half-maximal effect; as to ratio activity, negative = inhibition: % is scaled to controls: 0 for no effect and ±100 for the full control effect
# UniProt P37231, sequence (P37231 whole entry, looked up): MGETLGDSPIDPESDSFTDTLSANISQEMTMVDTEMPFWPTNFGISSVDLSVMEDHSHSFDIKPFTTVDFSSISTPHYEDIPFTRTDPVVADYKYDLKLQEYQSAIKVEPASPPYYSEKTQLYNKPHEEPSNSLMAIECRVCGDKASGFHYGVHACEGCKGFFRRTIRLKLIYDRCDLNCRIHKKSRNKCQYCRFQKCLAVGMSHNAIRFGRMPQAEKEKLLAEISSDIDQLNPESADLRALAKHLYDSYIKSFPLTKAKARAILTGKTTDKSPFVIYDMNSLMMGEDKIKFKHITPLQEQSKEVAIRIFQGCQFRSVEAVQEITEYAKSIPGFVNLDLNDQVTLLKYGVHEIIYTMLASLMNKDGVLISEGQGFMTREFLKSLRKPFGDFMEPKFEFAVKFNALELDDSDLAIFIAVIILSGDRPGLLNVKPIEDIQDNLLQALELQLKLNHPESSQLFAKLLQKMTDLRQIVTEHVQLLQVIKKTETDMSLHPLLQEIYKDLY
# In short: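 Beta-lactamase reporter under UAS control in HEK293H PPARg-bla cells; compound treatment 17 h at 37C. Read-out: fluorescence intensity after 1 h room-temperature incubation with LiveBLAzer B/G FRET substrate.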
# [12] = biological target: Peroxisome proliferator-activated receptor delta (Homo sapiens) (UniProt Q03181); assay: qHTS assay to identify small molecule antagonists of the peroxisome proliferator-activated receptor delta (PPARd) signaling pathway (AID 743215; active = well fitted inhibition curve with a large enough effect in the signal ratio in the repeat runs, not every such curve was filed as active; inconclusive = weak or mixed curves, or effect the other way; inactive = no such curve, though single readings can be large or run the other way; the % refers to the signal ratio;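 also: cells stimulated with agonist L165041 at 300 nM final during compound exposure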; also: potency is read from the fitted curve at half-maximal effect; as to ratio activity, negative = inhibition: % is scaled to controls: 0 for no effect and ±100 for the full control effect); details: HEK293H PPARd-UAS-bla, beta-lactamase FRET ratio, antagonist, 17 h; ratio activity, negative = inhibition: at 62 µM (top of the series) unless noted
# UniProt Q03181, sequence (Q03181 whole entry, looked up): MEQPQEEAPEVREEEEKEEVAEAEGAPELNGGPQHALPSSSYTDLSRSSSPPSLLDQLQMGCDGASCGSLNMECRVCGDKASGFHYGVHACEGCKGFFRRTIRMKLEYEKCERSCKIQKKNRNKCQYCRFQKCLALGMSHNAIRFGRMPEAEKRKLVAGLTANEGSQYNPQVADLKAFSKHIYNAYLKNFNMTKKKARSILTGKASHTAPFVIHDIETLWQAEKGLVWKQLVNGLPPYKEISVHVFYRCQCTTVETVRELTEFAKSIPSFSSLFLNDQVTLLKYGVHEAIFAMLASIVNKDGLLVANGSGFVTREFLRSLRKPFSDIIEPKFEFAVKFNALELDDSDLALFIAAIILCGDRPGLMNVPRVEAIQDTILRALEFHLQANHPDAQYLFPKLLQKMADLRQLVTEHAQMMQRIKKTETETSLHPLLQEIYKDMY
# In short: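 Cells: HEK293H with a UAS-driven beta-lactamase reporter responsive to PPARd. Compounds were co-added with L165041 (300 nM, final) and incubated 17 h at 37 C before a 2 h room-temperature FRET substrate step and fluorescence reading.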
# [13] = qHTS assay to identify small molecule antagonists of the peroxisome proliferator-activated receptor delta (PPARd) signaling pathway - cell viability counter screen (AID 743213; active = well fitted curve in the direction sought with a large enough effect in the repeat runs; inconclusive = weak or mixed curves; inactive = no such curve, though single readings can be large; an effect the other way counts as inactive or inconclusive; also: nearly all actives have a fitted effect of over 50% in size; also: potency is read from the fitted curve at half-maximal effect); details: PPARd-bla HEK293H viability, CellTiter-Glo luminescence, 17 h; viability change, negative = cytotoxic: at 62 µM (top of the series) unless noted
# In short: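 Cytotoxicity counter screen: CellTiter-Glo luminescence read 30 min after addition, in the same wells as the reporter assay. There, PPARd UAS-bla HEK293H cells (3000/well) were treated 17 h at 37 C with compound and 300 nM L165041.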
# Tags tell the direction and shape of the fitted curve or compound fluorescence and quenching.
smiles,measurement,setting,value
O=C(O)Cc1cc(I)c(Oc2ccc(O)c(I)c2)c(I)c1,Potency,[1],active: 24.5 µM
same,Potency,[2],active: 15.4 µM
same,"viability change, negative = cytotoxic",[3],inconclusive: -51.4% [cytotoxic]
same,Potency,[4],"inconclusive: 54.9 µM [rising, single point]"
same,Potency,[5],"inconclusive: 54.9 µM [rising, partial curve]"
same,Potency,[6],"inconclusive: 61.7 µM [cytotoxic, single point]"
same,Potency,[7],"inconclusive: 38.9 µM [fluorescent, partial curve, poor fit]"
same,Potency,[8],active: 54.9 µM
same,Potency,[9],inconclusive: 13.8 µM [fluorescent]
same,Potency,[10],"inconclusive: 27.5 µM [fluorescent, partial curve]"
COC(=O)c1cc(Cl)cc(Cl)c1,Potency,[1],"inconclusive: 0.0155 µM [cytotoxic, full curve, poor fit]"
same,Potency,[2],inactive
CCCCCCCC/C=C\CCCCCCCC(N)=O,Potency,[11],"inconclusive: 30.9 µM [activator, partial curve]"
same,Potency,[5],"inconclusive: 38.9 µM [inhibitor, partial curve]"
same,Potency,[6],"inconclusive: 21.9 µM [rising, partial curve]"
CC(=O)c1c(C)c([N+](=O)[O-])c(C(C)(C)C)c([N+](=O)[O-])c1C,Potency,[11],inactive
same,Potency,[12],inactive
same,"activity change, negative = inhibition",[5],inconclusive: -18.4%
same,"activity change, negative = inhibition",[10],inconclusive: -13%
C=C(C)C(=O)OCCOC(=O)C(=C)C,Potency,[11],inactive
same,Potency,[13],"inconclusive: 1.12 µM [cytotoxic, single point] and inconclusive: 54.9 µM [cytotoxic, single point]"
same,Potency,[12],"inconclusive: 49 µM [rising, single point]"
same,Potency,[6],"inconclusive: 3.89 µM [rising, partial curve, poor fit]"
same,Potency,[9],"inconclusive: 7.76 µM [rising, partial curve]"
OCC1CCCO1 (stereo not drawn),Potency,[11],inconclusive: 54.9 µM [activator]
same,"activity change, negative = inhibition",[5],inconclusive: 5.91%
same,activation,[9],inconclusive: -10.4% [at 81.1 µM]
C[C@](N)(Cc1ccc(O)cc1)C(=O)O,"ratio activity, negative = inhibition",[11],inconclusive: 8.02% [at 5.95 µM]
same,"activity change, negative = inhibition",[5],inactive: 3.49% [at 5.95 µM]
CC/C=C\CCOC(=O)c1ccccc1,Potency,[11],inactive
same,Potency,[9],"inconclusive: 0.0436 µM [rising, full curve, poor fit]"
CCCCCOC(=O)Nc1nc(=O)n([C@@H]2O[C@H](C)[C@@H](O)[C@H]2O)cc1F,Potency,[11],inactive
same,"ratio activity, negative = inhibition",[12],inconclusive: 3.59%
NS(=O)(=O)c1cc(C(=O)NN2C[C@H]3[C@H]4CCC(C4)[C@H]3C2)ccc1Cl,"ratio activity, negative = inhibition",[11],inconclusive: 18.8%
same,Potency,[13],inactive
ClC(Cl)(Cl)c1ccc(C(Cl)(Cl)Cl)cc1,"ratio activity, negative = inhibition",[11],inconclusive: 10.2%
same,Potency,[10],inactive
CCc1cccc(CC)c1NC(=O)CN(CC(=O)O)CC(=O)O,"ratio activity, negative = inhibition",[11],inconclusive: -1.15%
same,Potency,[12],inactive
OCC1CCC(CO)CC1 (stereo not drawn),"ratio activity, negative = inhibition",[11],inconclusive: -12.1% [at 81.1 µM]
same,Potency,[6],"inconclusive: 0.0078 µM [cytotoxic, full curve, poor fit]"
Nc1ncnc2c1ncn2[C@@H]1O[C@H](CO)[C@@H](O)[C@H]1O,Potency,[1],inactive
same,activation,[2],inconclusive: -9.69%
